73 sequences from the BET-seq Pho4 binding data (Le et al. 2018) can be followed below.

This is one part of the list. These are noisy estimates, calculated here from bound and input reads.

The assay addresses T1, Pho4 (S. cerevisiae) (UniProt P07270).
T1 sequence: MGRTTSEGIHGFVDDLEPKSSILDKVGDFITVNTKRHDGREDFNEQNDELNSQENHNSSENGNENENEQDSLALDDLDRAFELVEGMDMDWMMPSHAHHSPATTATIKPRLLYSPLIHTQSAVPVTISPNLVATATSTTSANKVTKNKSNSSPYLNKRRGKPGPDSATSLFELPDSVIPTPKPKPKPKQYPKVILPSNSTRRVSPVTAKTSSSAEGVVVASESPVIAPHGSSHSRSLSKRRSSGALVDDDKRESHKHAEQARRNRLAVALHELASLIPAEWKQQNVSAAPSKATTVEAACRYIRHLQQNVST
Description: relative binding free energy (BET-seq); higher = weaker binding. To be noted: reference: library average.
On to GTTAACACGTGATATT, for which the “relative binding free energy” value was 0.21 kcal/mol.

In the case of TTTTTCACGTGCAGTG, the “relative binding free energy” value was 0.34 kcal/mol.

On to GAACGCACGTGGGGTG, for which the “relative binding free energy” value is -0.26 kcal/mol.

Regarding CTTGGCACGTGTCAGG, the “relative binding free energy” value was -0.16 kcal/mol.

On to GTTCGCACGTGGTTAA, for which the “relative binding free energy” value turned out to be 0.02 kcal/mol.

With GGATGCACGTGGGGCC, the “relative binding free energy” value was -0.08 kcal/mol.

TGTGGCACGTGGCGAA: the “relative binding free energy” value was -0.07 kcal/mol.

AAGGCCACGTGTGGTT: the “relative binding free energy” value came out at 0 kcal/mol.

Turning to AATGGCACGTGAGGGA, the “relative binding free energy” value is 0.09 kcal/mol.

On to GTTATCACGTGAGGTG, for which the “relative binding free energy” value came to 0.37 kcal/mol.

Consider ATAGGCACGTGTTAGC, for which the “relative binding free energy” value was -0.09 kcal/mol.

CTTGGCACGTGTAATG: the “relative binding free energy” value came to 0.02 kcal/mol.

On to GTCTACACGTGCTGGG, for which the “relative binding free energy” value was determined as 0.23 kcal/mol.

With GAGGACACGTGTTTAA, the “relative binding free energy” value was found to be 0.31 kcal/mol.

For GATGTCACGTGGAGGT, the “relative binding free energy” value came to 0.14 kcal/mol.

Regarding AGTTACACGTGGTTTA, the “relative binding free energy” value was 0.06 kcal/mol.

As to CGATACACGTGTGTGT, the “relative binding free energy” value is -0.08 kcal/mol.

For GTGCGCACGTGTTAGG, the “relative binding free energy” value was -0.08 kcal/mol.

For the sequence GGAGGCACGTGGTTGC, the “relative binding free energy” value is -0.13 kcal/mol.

For TCGTTCACGTGAAGGG, the “relative binding free energy” value is 0.45 kcal/mol.

In the case of TAAGTCACGTGGTGGA, the “relative binding free energy” value is 0.09 kcal/mol.

For TTCGGCACGTGCTGGG, the “relative binding free energy” value is -0.09 kcal/mol.

For TTATTCACGTGGAAGG, the “relative binding free energy” value is 0.35 kcal/mol.

On to CGATACACGTGTTTGT, for which the “relative binding free energy” value stood at 0 kcal/mol.

Take CGGTTCACGTGTGTGG: the “relative binding free energy” value was determined as 0.29 kcal/mol.

In the case of TTCGCCACGTGTTTTG, the “relative binding free energy” value is 0 kcal/mol.

As for AGGGTCACGTGATGCA, the “relative binding free energy” value was determined as 0.09 kcal/mol.

With CTGTGCACGTGGTTAG, the “relative binding free energy” value is -0.08 kcal/mol.

Consider TTAGTCACGTGTGGAT, for which the “relative binding free energy” value was determined as 0.17 kcal/mol.

Regarding GGGATCACGTGATCGG, the “relative binding free energy” value amounted to 0.34 kcal/mol.

Turning to TATTACACGTGTTGTA, the “relative binding free energy” value turned out to be 0.19 kcal/mol.

GCTGACACGTGGAGGG: the “relative binding free energy” value was 0.14 kcal/mol.

With CCTTTCACGTGTGGGG, the “relative binding free energy” value turned out to be 0.35 kcal/mol.

For the sequence TGATTCACGTGGGCAT, the “relative binding free energy” value worked out at 0.16 kcal/mol.

As for TGGAGCACGTGAATGA, the “relative binding free energy” value was found to be 0.21 kcal/mol.

Consider ACGTTCACGTGGGGAG, for which the “relative binding free energy” value came to 0.18 kcal/mol.

Turning to GGATGCACGTGGATTA, the “relative binding free energy” value amounted to 0.01 kcal/mol.

In the case of TTGTCCACGTGGGTTT, the “relative binding free energy” value is 0.04 kcal/mol.

With CTTGGCACGTGATGGT, the “relative binding free energy” value amounted to 0.03 kcal/mol.

GGGGACACGTGCCTGG: the “relative binding free energy” value was -0.08 kcal/mol.

For ATGGTCACGTGTGATC, the “relative binding free energy” value turned out to be 0.19 kcal/mol.

Consider CGTTTCACGTGGTGAT, for which the “relative binding free energy” value worked out at 0.12 kcal/mol.

As for GGCGTCACGTGGGGGT, the “relative binding free energy” value amounted to 0.04 kcal/mol.

As for GGGGGCACGTGTATCG, the “relative binding free energy” value was found to be 0.04 kcal/mol.

In the case of GTGCTCACGTGGTTTG, the “relative binding free energy” value turned out to be 0.22 kcal/mol.

Turning to GGGAACACGTGCGGTT, the “relative binding free energy” value was -0.07 kcal/mol.

Take GTGCTCACGTGGTGCT: the “relative binding free energy” value was 0.24 kcal/mol.

For ATTTGCACGTGCTGTG, the “relative binding free energy” value is -0.06 kcal/mol.

With AAGTTCACGTGTTCGT, the “relative binding free energy” value was determined as 0.26 kcal/mol.

Turning to TTTTGCACGTGGACAG, the “relative binding free energy” value is -0.17 kcal/mol.

For GCGTTCACGTGTGGGG, the “relative binding free energy” value came to 0.37 kcal/mol.

As for GTAGTCACGTGCGGTT, the “relative binding free energy” value stood at 0.19 kcal/mol.

For the sequence GGCATCACGTGGGTGA, the “relative binding free energy” value stood at 0.06 kcal/mol.

In the case of GGCGGCACGTGAGAGT, the “relative binding free energy” value worked out at 0.31 kcal/mol.

Take GTGTTCACGTGATTTA: the “relative binding free energy” value came to 0.43 kcal/mol.

In the case of AGTAACACGTGATGTA, the “relative binding free energy” value is -0.01 kcal/mol.

With TCTTGCACGTGTTTGA, the “relative binding free energy” value was -0.1 kcal/mol.

Consider GGTGACACGTGCGCTG, for which the “relative binding free energy” value was -0.03 kcal/mol.

Turning to GGGACCACGTGGGTAT, the “relative binding free energy” value was -0.16 kcal/mol.

Consider ATTGACACGTGTGACG, for which the “relative binding free energy” value came to 0.09 kcal/mol.

Turning to GAGTTCACGTGGGTTG, the “relative binding free energy” value was found to be 0.2 kcal/mol.

With TAGGGCACGTGCGCTG, the “relative binding free energy” value was -0.27 kcal/mol.

Take GTTAGCACGTGTTAGA: the “relative binding free energy” value was determined as 0.01 kcal/mol.

On to CTATTCACGTGTGTGT, for which the “relative binding free energy” value stood at 0.18 kcal/mol.

Take TCAGACACGTGGTGTA: the “relative binding free energy” value is -0.13 kcal/mol.

On to TATGTCACGTGGCCTT, for which the “relative binding free energy” value is -0.02 kcal/mol.

Regarding CATTTCACGTGTAGTG, the “relative binding free energy” value was determined as 0.17 kcal/mol.

For the sequence AGGGGCACGTGTAGGA, the “relative binding free energy” value was -0.06 kcal/mol.

Regarding GGCTGCACGTGTATGT, the “relative binding free energy” value is -0.09 kcal/mol.

Turning to GCTATCACGTGTTAGG, the “relative binding free energy” value is 0.33 kcal/mol.

TCGTTCACGTGAGGGT: the “relative binding free energy” value was 0.49 kcal/mol.

On to TATTACACGTGGGCAG, for which the “relative binding free energy” value was determined as 0.12 kcal/mol.

Regarding TCTTGCACGTGGGTCG, the “relative binding free energy” value is -0.16 kcal/mol.
